# The list shows a part of the results. At the low end of the ranking the order means little.
# Target: SIX1 homeodomain (reference allele) (UniProt Q15475)
# Experiment: universal protein binding microarray
# Settings: Universal all-10-mer PBM (8x60K, AMADID 030236), 300 nM GST-tagged protein, Alexa Fluor 488 anti-GST; buffer, salt, pH and temperature not stated; high values mean tight binding; most listed sequences are background and not binding sites; double strand, one strand shown
row,Sequence,binding signal [E-score]
1,GCTATCGA,0.253
2,TCGTACAA,-0.187
3,TCTAACCA,-0.12
4,GCACGGAA,-0.244
5,CCGGTTGC,0.0289
6,GAAAATGC,-0.333
7,GACGGATC,0.358
8,AGGAGTGC,-0.0354
9,AAGGAGGG,-0.000575
10,CCAGAATA,0.142
11,GCTGCGAA,-0.0649
12,AACCCTTC,0.0703
13,CGTAGTAC,-0.0844
14,AGATAATA,0.245
15,ACCGGTAT,0.37
16,CAAGTAGA,0.0844
17,AGTAACTC,-0.0483
18,GGCCAGGA,-0.185
19,GATGCATC,-0.0464
20,CAGGATCC,0.354
21,ACTTCCGG,-0.187
22,ACCGCACT,-0.0203

row,Sequence,binding signal [E-score]
1,ATATGGAC,0.173
2,ATTCAACC,0.0227
3,GCCTTTCA,0.0386
4,CTTGGACC,-0.0685
5,ACCCGCTA,-0.0737
6,GAATATAA,-0.035
7,CAAAGATG,-0.196
8,AACAAGCA,-0.148
9,GGTTCGAC,0.0197
10,AATAGAGG,-0.0626
11,AGCCTCGC,-0.019
12,GATGTATA,0.306
13,TAACCCGA,0.213
14,CGGAATTA,-0.103
15,CAGTTTGG,-0.104
16,AACAAGGC,-0.27
17,AAATTATG,-0.21
18,GATGAGAC,0.207
19,AAATAAGC,-0.285
20,CCCCTCTA,0.177
21,ACTAAGAC,-0.00729
22,GCTAATGA,-0.0427

row,Sequence,binding signal [E-score]
1,ATCAACTG,0.0904
2,CTTGACAC,0.244
3,CCTCTCCC,0.0415
4,AAAGCGTT,-0.4
5,ACGGAAGC,-0.13
6,TCGGCACA,0.126
7,ACTGTGCA,-0.0177
8,GCATGACC,-0.0634
9,GGATGAGA,0.212
10,AAGCATCA,0.0863
11,ACCCCGGT,0.138
12,ACTGCCGG,0.0128
13,GGGTAGGA,0.0984
14,CAGAAATC,-0.225
15,CTCGAGCA,-0.0823
16,CCGTTTTC,-0.0928
17,CTAGCCCA,-0.181
18,GAAGGGAC,-0.157
19,GTCTGGAA,-0.0546
20,CGGCTGAG,-0.0535
21,ACAATGGC,-0.308
22,ACTACTGA,0.0187

row,Sequence,binding signal [E-score]
1,GTAATAAC,-0.119
2,GTTGTACA,0.0321
3,CCCTGTCC,-0.0634
4,CCTCGTTA,0.0644
5,CCGATTAG,0.0911
6,AGCAAAGG,-0.0355
7,TGTGAGAA,0.101
8,AAGGCACC,-0.225
9,ATGCTATG,0.124
10,CGTATCTC,0.378
11,GGTGGGCA,-0.0177
12,CCCCGTTA,-0.104
13,ATTATGTG,0.171
14,CCATGGGC,-0.128
15,AAGAGGAG,-0.0511
16,ACAGCTAT,0.0737
17,GATTAACC,-0.0534
18,CCGGGCCA,0.0113
19,GGGCGACA,-0.185
20,CAGGCTGC,-0.168

# Reference: PMC10668032
